Data taken from PMC13140710, “Small heat shock proteins HspB1 and HspB5 differentially alter the condensation and aggregation of the TDP‐43 low‐complexity domain” (Protein Science : A Publication of the Protein Society, 2026).

Biological target: T1, TDP‐43 low‐complexity domain (TDP‐43^LCD), amino acids 267–414 of TDP‐43 (UniProt Q13148 267-414, Cy5 (mono NHS ester) label in TCCD and, at 1% of the protein, in FRAP; unlabelled in the other assays)
T1 construct: source: E. coli BL21(DE3), purified from inclusion bodies (HisTrap in 8 M urea), buffer exchanged into 20 mM MES pH 6.0
Experiment: two-color coincidence detection (TCCD), confocal single-molecule fluorescence; fluorescently labelled TDP-43^LCD and labelled sHsp, diluted to 200 nM in 20 mM MES pH 6.0, 25°C, both in solution; peaks found in both channels within 10 ms counted as coincident (hetero-oligomers)
Details: both partners purified

T1 sequence (Q13148 267-414, one chain of several): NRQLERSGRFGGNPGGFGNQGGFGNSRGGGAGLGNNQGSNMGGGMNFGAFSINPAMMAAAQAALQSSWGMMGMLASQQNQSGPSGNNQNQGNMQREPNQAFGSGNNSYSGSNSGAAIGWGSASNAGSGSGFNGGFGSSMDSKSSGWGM

B1: HspB1^ACD (core α‐crystallin domain of HspB1, […]) (domain or fragment)
chain: not shown
modifications: Alexa Fluor 647 (NHS ester) label in TCCD and in the condensate partitioning experiment
notes: Small heat shock protein HspB1 (Hsp27), α-crystallin domain, […]; pET28 vector, gift of A. Laganowsky (Laganowsky et al., 2010); also called core domain of HspB1; source: E. coli BL21(DE3), purified
- binding result: binds
